Source: paper PMC4336329 (PLoS ONE, 2015)
Among all 310,000 compounds or so, about 14,000 (4.5%) showed an effect of 50% or more. The effect is printed as a negative number. Some of the results follow.

molecular target: human ether-à-go-go-related gene (hERG) potassium channel (human, UniProt Q12809); assay: primary screen, population patch clamp on CHO cells stably expressing hERG
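Further: peak tail current of the secondary pulse compared with the same well before compound.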

human ether-à-go-go-related gene (hERG) potassium channel, sequence (Q12809 whole entry, looked up): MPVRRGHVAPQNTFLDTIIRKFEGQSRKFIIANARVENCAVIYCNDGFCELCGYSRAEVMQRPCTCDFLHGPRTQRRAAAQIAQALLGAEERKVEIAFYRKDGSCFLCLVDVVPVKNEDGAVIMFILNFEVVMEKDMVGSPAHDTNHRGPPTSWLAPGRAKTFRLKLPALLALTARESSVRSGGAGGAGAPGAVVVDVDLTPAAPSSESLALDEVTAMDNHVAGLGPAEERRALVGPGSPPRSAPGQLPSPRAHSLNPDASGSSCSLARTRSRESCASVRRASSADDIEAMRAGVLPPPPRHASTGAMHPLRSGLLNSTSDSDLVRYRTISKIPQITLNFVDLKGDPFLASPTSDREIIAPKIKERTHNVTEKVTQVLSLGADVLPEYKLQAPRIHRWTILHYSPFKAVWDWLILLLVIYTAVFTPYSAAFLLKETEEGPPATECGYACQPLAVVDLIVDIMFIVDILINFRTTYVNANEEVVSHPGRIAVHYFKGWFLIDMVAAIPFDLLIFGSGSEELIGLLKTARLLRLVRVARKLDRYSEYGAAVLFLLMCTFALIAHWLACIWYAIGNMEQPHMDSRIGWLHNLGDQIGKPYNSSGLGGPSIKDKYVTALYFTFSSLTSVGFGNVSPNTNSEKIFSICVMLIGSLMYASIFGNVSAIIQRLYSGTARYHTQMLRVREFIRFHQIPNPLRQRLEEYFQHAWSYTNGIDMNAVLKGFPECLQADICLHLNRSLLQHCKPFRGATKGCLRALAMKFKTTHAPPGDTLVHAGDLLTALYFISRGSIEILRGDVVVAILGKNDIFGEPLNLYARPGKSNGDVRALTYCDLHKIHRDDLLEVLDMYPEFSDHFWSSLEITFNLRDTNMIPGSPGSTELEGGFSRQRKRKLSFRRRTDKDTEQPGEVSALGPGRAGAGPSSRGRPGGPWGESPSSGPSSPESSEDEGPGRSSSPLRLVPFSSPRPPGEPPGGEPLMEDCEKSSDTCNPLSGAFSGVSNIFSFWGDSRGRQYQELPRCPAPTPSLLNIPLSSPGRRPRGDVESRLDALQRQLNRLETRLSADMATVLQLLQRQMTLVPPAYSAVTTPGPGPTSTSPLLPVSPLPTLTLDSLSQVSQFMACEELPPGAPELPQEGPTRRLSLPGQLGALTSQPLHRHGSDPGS

SMILES | hERG current change (%, negative = inhibition) at 10uM [%]
CC(C)CNC(=O)COC(=O)c1ccc2c(c1)C(=O)N(Cc1ccco1)C2=O | -0.0401
O=C(c1ccccn1)c1ccc2ccccc2n1 | 9.62
O=C(Nc1ccccc1)C(c1ccccc1)c1ccccc1 | 15.1
COc1ccc(CCN(C(=O)C(F)(F)F)C(C(=O)NC2CCCC2)c2cccs2)cc1 (stereo not drawn) | 0.495
COc1ccc(OC)c(NC(=O)CCCCCn2nnc3ccccc3c2=O)c1 | -2.09
Nc1nc(NCc2ccccc2)nc(NCc2ccccc2)c1[N+](=O)[O-] | 16.2
CC(NCc1ccccc1O)C12CC3CC(CC(C3)C1)C2.Cl (stereo not drawn) | -37.4
COc1cc(/C=N/NC(=O)c2ccncc2)ccc1OC(=O)c1ccc([N+](=O)[O-])cc1 | 2.29
COc1ccc(CN(C(=O)c2ccccc2OC)C2CCS(=O)(=O)C2)cc1 (stereo not drawn) | -6.54
O=C(Nc1nnc(CSCc2ccc(F)cc2)s1)c1ccc([N+](=O)[O-])cc1 | -1.41
CC(Oc1cc2oc(=O)c3c(c2cc1Cl)CCCC3)C(=O)NCc1cccnc1 (stereo not drawn) | -12.9
CCOC(=O)C1=C(N)OC2=C(C(=O)CCC2)C12C(=O)N1c3c(ccc(C)c32)C(C)=CC1(C)C (stereo not drawn) | -20.8
Cc1noc(NS(=O)(=O)c2ccc(NC(=O)/C=C/c3ccc(Br)cc3)cc2)c1C | 10.9
NC(=O)C1(N2CCCCC2)CCN(C(=S)NCCc2ccccc2)CC1 | 3.91
COc1ccc(CNC(=O)C2CCC(CNc3c(N4CCOCC4)c(=O)c3=O)CC2)cc1 (stereo not drawn) | 5.29
CCOC(=O)c1c(C)[nH]c(C)c1S(=O)(=O)NCC1CCN(Cc2cccc(F)c2)CC1 | -1.69
CCCN1C2CCCC1CC(NC(=O)c1ccc(OC)cc1)C2 (stereo not drawn) | -30.1
Cc1ccc(S(=O)(=O)NNC(=S)Nc2c(Cl)cccc2Cl)cc1 | 16.8
O=C(CNC(=O)Cc1ccccc1)NCC(=O)OCC(=O)c1ccc(F)cc1 | 8.03
COc1ccccc1NC(=O)C1=C(C)Nc2ncnn2C1c1ccccc1C (stereo not drawn) | 5.06
Cc1nc2sc(C(c3ccccc3)N3CCN(C(=O)c4ccco4)CC3)c(O)n2n1 (stereo not drawn) | 8.97
NC(=O)CC(NC(=O)Cc1cccc2ccccc12)c1ccc(NCC2CC2)c([N+](=O)[O-])c1 (stereo not drawn) | -22.3
Cc1ccc(-n2nnnc2SCC(=O)Nc2sccc2C#N)cc1 | 14.5
Cc1ccccc1NC(=S)NC1(C)CCS(=O)(=O)C1 (stereo not drawn) | -3.47
O=C(NCC(c1cccs1)N1CCOCC1)c1ccco1 (stereo not drawn) | 13.3
COc1ccc(C(=O)NC2CCCCC2)cc1S(=O)(=O)N1CCOCC1 | -14.8
Cc1sc2ncnc(OCc3nnc(-c4cccs4)o3)c2c1C | 2.2

SMILES | hERG current change (%, negative = inhibition) at 10uM [%]
COc1ccc(C(=O)NNC2=NCCCCC2)cc1 | 21.6
Cc1ccc(C)c(S(=O)(=O)N2CCN(C(=O)CCC(=O)NCc3ccc(Cl)cc3)CC2)c1 | -65.1
CCn1c(CCNC(=O)c2ccc(OC)cc2)nnc1SCC(=O)Nc1ccccc1F | -22.7
N#CC1=C(N)Oc2cc(N)ccc2C1c1cc(Br)cs1 (stereo not drawn) | -13.6
COc1ccccc1CC(=O)Nc1ccc([N+](=O)[O-])cc1O | 17.8
FC(F)(F)c1ccccc1NC(=S)Nc1cccc(Cl)c1 | 4.06
C#CCOCCOCCOCCNc1nc(N2CCN(C(=O)[C@H](C(C)C)n3cc(CCO)nn3)CC2)nc(N2CCN(C(=O)[C@H]([C@@H](C)CC)n3cc(CCC[NH+]=C(N)N)nn3)CC2)n1.[Cl-] | 12.9
Cc1[nH]c2ccccc2c1C(=O)COC(=O)C1CC(=O)N(Cc2ccccc2)C1 (stereo not drawn) | -11.7
C=CCNC(=O)c1ccccc1NC(=O)c1ccc(Cl)c(S(=O)(=O)Nc2cc(C)ccc2C)c1 | 11.9
CC1CCC(NC(=O)Cn2cc3c(n2)CCCC3)CC1 (stereo not drawn) | 8
CCCC(=O)NC(NC(=S)Nc1ccc(S(N)(=O)=O)cc1)C(Cl)(Cl)Cl (stereo not drawn) | -2.12
O=C(CSCc1ccc([N+](=O)[O-])cc1)Nc1ccccc1C(=O)O | 24.7
CN(C)c1ccc(Nc2ncnc3ccc(Br)cc23)cc1 | 20.4
Cc1ccccc1NC(=S)NCc1ccc2c(c1)cc(C)n2C | 8.83
O=C(Cn1nnc(-c2ccc(N3CCOCC3)cc2)n1)OC1CCCCC1 | -3.51
CCn1nnc2cc(C(=O)O)ccc21 | 7.03
COc1ccccc1OCC(=O)Nc1c2c(nn1-c1ccc(F)cc1)CS(=O)(=O)C2 | 0.931
CCOc1ccc(C(=O)NCC(=O)N2CCC(C)CC2)cc1OCC | 3.68
CCCC(=O)N1CCN(c2ccc(NC(=O)c3ccc(Br)o3)cc2)CC1 | -8.1
CCC[C@@H]1CCCO[C@@](C(=O)NCc2cc(C)n(C)n2)(C(F)(F)F)C1 | 3.39
Cn1c(-c2ccsc2)c(-c2cccs2)c2cc(Br)ccc21 | -5.11
C=CCc1c(C)nc(SC(C)C)[nH]c1=O | -2.85
O=C(N/N=C/C1CC=CCC1)c1cc(-c2cccnc2)nc2ccccc12 (stereo not drawn) | 2.24
COC(=O)c1ccc(NC(=O)c2cc(-c3ccncc3)nc3ccccc23)cc1 | -31.3
CCN1C(=O)[C@H]2[C@@H](c3ccc(-c4cc(C(C)=O)cs4)cc3)N3CCCC[C@@]3(C(=O)OC)[C@H]2C1=O.O=C(O)C(F)(F)F | 10.2
CN1CCC(c2c[nH]c3ccccc23)C1 (stereo not drawn) | 10.9
COc1ccc(NC(=O)NCc2ccccc2F)cc1OC | 4.08
